The values that follow come from PMC9911399, “Two distinct binding modes provide the RNA-binding protein RbFox with extraordinary sequence specificity”.

The labels stand for the following.
T1: RBFOX1 RRM (Homo sapiens, UniProt Q9NWB1 109-208)
T1 sequence: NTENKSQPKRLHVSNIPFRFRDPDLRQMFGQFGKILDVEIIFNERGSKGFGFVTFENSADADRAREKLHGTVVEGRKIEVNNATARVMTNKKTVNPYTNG

B1: GAUAAGU (DNA:RNA)
RNA: GGGAGACCGGAAUUCAGAUUGUCCGAUAAGUUUAAAUCCCGUCGUAGCCACCA
DNA 1: CAATCTGAATTCCGGTCTCCC
DNA 2: TGGTGGCTACGACGGGATT
B2: CAUUAUC (DNA:RNA)
RNA: B1 RNA with G25C, A28U, G30U, U31C
DNA 1: CAATCTGAATTCCGGTCTCCC
DNA 2: TGGTGGCTACGACGGGATT
B3: CGGCGUG (DNA:RNA)
RNA: GGGAGACCGGAAUUCAGAUUGUCCCGGCGUGUUAAAUCCCGUCGUAGCCACCA
DNA 1: CAATCTGAATTCCGGTCTCCC
DNA 2: TGGTGGCTACGACGGGATT
B4: GCAUAAG (DNA:RNA)
RNA: B1 RNA with A26C, U27A, A28U, G30A, U31G
DNA 1: CAATCTGAATTCCGGTCTCCC
DNA 2: TGGTGGCTACGACGGGATT
B5: GCCGAGU (DNA:RNA)
RNA: B1 RNA with A26C, U27C, A28G
DNA 1: CAATCTGAATTCCGGTCTCCC
DNA 2: TGGTGGCTACGACGGGATT
B6: AAAAUCC (DNA:RNA)
RNA: B1 RNA with G25A, U27A, A29U, G30C, U31C
DNA 1: CAATCTGAATTCCGGTCTCCC
DNA 2: TGGTGGCTACGACGGGATT
B7: GCAUUAC (DNA:RNA)
RNA: B1 RNA with A26C, U27A, A28U, A29U, G30A, U31C
DNA 1: CAATCTGAATTCCGGTCTCCC
DNA 2: TGGTGGCTACGACGGGATT
B8: GUCAGGG (DNA:RNA)
RNA: B1 RNA with A26U, U27C, A29G, U31G
DNA 1: CAATCTGAATTCCGGTCTCCC
DNA 2: TGGTGGCTACGACGGGATT
B9: UCAAAUU (DNA:RNA)
RNA: B1 RNA with G25U, A26C, U27A, G30U
DNA 1: CAATCTGAATTCCGGTCTCCC
DNA 2: TGGTGGCTACGACGGGATT
B10: UAUAGCA (DNA:RNA)
RNA: B1 RNA with G25U, A29G, G30C, U31A
DNA 1: CAATCTGAATTCCGGTCTCCC
DNA 2: TGGTGGCTACGACGGGATT
B11: CUACAGA (DNA:RNA)
RNA: B3 RNA with G26U, G27A, G29A, U30G, G31A
DNA 1: CAATCTGAATTCCGGTCTCCC
DNA 2: TGGTGGCTACGACGGGATT
B12: AAUGGGG (DNA:RNA)
RNA: B1 RNA with G25A, A28G, A29G, U31G
DNA 1: CAATCTGAATTCCGGTCTCCC
DNA 2: TGGTGGCTACGACGGGATT
B13: GGGUCAU (DNA:RNA)
RNA: B3 RNA with C25G, C28U, G29C, U30A, G31U
DNA 1: CAATCTGAATTCCGGTCTCCC
DNA 2: TGGTGGCTACGACGGGATT
B14: UGCUCGU (DNA:RNA)
RNA: B1 RNA with G25U, A26G, U27C, A28U, A29C
DNA 1: CAATCTGAATTCCGGTCTCCC
DNA 2: TGGTGGCTACGACGGGATT
B15: CCACCGC (DNA:RNA)
RNA: B3 RNA with G26C, G27A, G29C, U30G, G31C
DNA 1: CAATCTGAATTCCGGTCTCCC
DNA 2: TGGTGGCTACGACGGGATT
B16: UCAGCGG (DNA:RNA)
RNA: B3 RNA with C25U, G26C, G27A, C28G, G29C, U30G
DNA 1: CAATCTGAATTCCGGTCTCCC
DNA 2: TGGTGGCTACGACGGGATT
B17: UUUGCCU (DNA:RNA)
RNA: B1 RNA with G25U, A26U, A28G, A29C, G30C
DNA 1: CAATCTGAATTCCGGTCTCCC
DNA 2: TGGTGGCTACGACGGGATT
B18: GGAACUC (DNA:RNA)
RNA: B3 RNA with C25G, G27A, C28A, G29C, G31C
DNA 1: CAATCTGAATTCCGGTCTCCC
DNA 2: TGGTGGCTACGACGGGATT
B19: GUUAGGC (DNA:RNA)
RNA: B1 RNA with A26U, A29G, U31C
DNA 1: CAATCTGAATTCCGGTCTCCC
DNA 2: TGGTGGCTACGACGGGATT
B20: AUCCCGG (DNA:RNA)
RNA: B3 RNA with C25A, G26U, G27C, G29C, U30G
DNA 1: CAATCTGAATTCCGGTCTCCC
DNA 2: TGGTGGCTACGACGGGATT
B21: UGGUGCU (DNA:RNA)
RNA: B3 RNA with C25U, C28U, U30C, G31U
DNA 1: CAATCTGAATTCCGGTCTCCC
DNA 2: TGGTGGCTACGACGGGATT
B22: GGGCCGC (DNA:RNA)
RNA: B3 RNA with C25G, G29C, U30G, G31C
DNA 1: CAATCTGAATTCCGGTCTCCC
DNA 2: TGGTGGCTACGACGGGATT
B23: CCAUCCG (DNA:RNA)
RNA: B3 RNA with G26C, G27A, C28U, G29C, U30C
DNA 1: CAATCTGAATTCCGGTCTCCC
DNA 2: TGGTGGCTACGACGGGATT
B24: CGAGGGG (DNA:RNA)
RNA: B3 RNA with G27A, C28G, U30G
DNA 1: CAATCTGAATTCCGGTCTCCC
DNA 2: TGGTGGCTACGACGGGATT
B25: ACAUGGU (DNA:RNA)
RNA: B1 RNA with G25A, A26C, U27A, A28U, A29G
DNA 1: CAATCTGAATTCCGGTCTCCC
DNA 2: TGGTGGCTACGACGGGATT
B26: AUGAGUG (DNA:RNA)
RNA: B3 RNA with C25A, G26U, C28A
DNA 1: CAATCTGAATTCCGGTCTCCC
DNA 2: TGGTGGCTACGACGGGATT
B27: CUGACUG (DNA:RNA)
RNA: B3 RNA with G26U, C28A, G29C
DNA 1: CAATCTGAATTCCGGTCTCCC
DNA 2: TGGTGGCTACGACGGGATT
B28: CCCAGCU (DNA:RNA)
RNA: B3 RNA with G26C, G27C, C28A, U30C, G31U
DNA 1: CAATCTGAATTCCGGTCTCCC
DNA 2: TGGTGGCTACGACGGGATT
B29: CCUGGUG (DNA:RNA)
RNA: B3 RNA with G26C, G27U, C28G
DNA 1: CAATCTGAATTCCGGTCTCCC
DNA 2: TGGTGGCTACGACGGGATT
B30: GUAUGGC (DNA:RNA)
RNA: B1 RNA with A26U, U27A, A28U, A29G, U31C
DNA 1: CAATCTGAATTCCGGTCTCCC
DNA 2: TGGTGGCTACGACGGGATT
B31: GCAAAUC (DNA:RNA)
RNA: B1 RNA with A26C, U27A, G30U, U31C
DNA 1: CAATCTGAATTCCGGTCTCCC
DNA 2: TGGTGGCTACGACGGGATT

Numbering of substitutions follows the chain as printed; changes in the protein carry UniProt numbers. This is one part of the list.

The assay addresses T1, RBFOX1 RRM. As to the kind of experiment: EMSA; HiTS-Eq, 1 nM pool, 10 min; buffer printed only for the single-RNA assays: 10 mM Tris pH 7.5, 150 mM NaCl, 3.4 mM EDTA, 0.001% NP-40, 30 C. As to conditions: tags: His6 N-terminal (pET28a); label: 5' 32P. A digest of the protocol: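 Purified RbFox RRM (wild type or mutant) was equilibrated for 10 min in 50 µL with 1 nM of a 5′-radiolabelled pool of RNA with 7 randomized nucleotides, its flanks annealed to DNA oligonucleotides, across increasing protein concentrations. Free RNA was separated by 8% native PAGE, excised, reverse-transcribed, PCR-barcoded and sequenced on an Illumina HiSeq 2500. Relative association constants came from read-count changes of each variant against the control reaction, normalised to the cognate motif.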
B1: the binding signal was 0.00944 KA relative to UGCAUGU.
Regarding B2, the binding signal is 0.000253 KA relative to UGCAUGU.
For B3, the binding signal was 0.026 KA relative to UGCAUGU.
B4: the binding signal was 0.0106 KA relative to UGCAUGU.
On to B5, for which the binding signal was 0.0185 KA relative to UGCAUGU.
Next, B6: 0.000499 KA relative to UGCAUGU; B7: 0.00834 KA relative to UGCAUGU.
In the case of B8, the binding signal was 0.00793 KA relative to UGCAUGU.
To B9 belongs 0.000705 KA relative to UGCAUGU; to B10, 0.0156 KA relative to UGCAUGU; to B11, 0.00632 KA relative to UGCAUGU.
To B12 belongs 0.00782 KA relative to UGCAUGU; to B13, 0.0141 KA relative to UGCAUGU; to B14, 0.0359 KA relative to UGCAUGU.
Next, B15: 0.00519 KA relative to UGCAUGU; B16: 0.0122 KA relative to UGCAUGU.
Consider B17, for which the binding signal was 0.0166 KA relative to UGCAUGU.
Next, B18: 0.0164 KA relative to UGCAUGU; B19: 0.0106 KA relative to UGCAUGU.
Next, B20: 0.00357 KA relative to UGCAUGU.
For B21, the binding signal was 0.0292 KA relative to UGCAUGU.
To B22 belongs 0.0163 KA relative to UGCAUGU; to B23, 0.00435 KA relative to UGCAUGU.
Next, B24: 0.00639 KA relative to UGCAUGU.
Next, B25: 0.00766 KA relative to UGCAUGU; B26: 0.0209 KA relative to UGCAUGU; B27: 0.0302 KA relative to UGCAUGU.
B28: the binding signal is 0.0114 KA relative to UGCAUGU.
Take B29: the binding signal was 0.0199 KA relative to UGCAUGU.
To B30 belongs 0.0131 KA relative to UGCAUGU; to B31, 0.00254 KA relative to UGCAUGU.
